Assay results reported in the supplement of paper PMC7826260.
This is one part of the list. The data describe in vitro nicking of single-stranded DNA by Rep domains (1 h at 37 °C, 3 µM enzyme); the outer parts of the 90-letter strands are left off. A value is the log2 ratio of uncut reads to the pool without enzyme; more negative means more cut, near 0 not cut, and no call is made. Reads are scaled to the total, so uncut sequences can rise above 0 when many others are cut.

The sequences below were run on T1, Rep nickase domain of tomato golden mosaic virus (assay: uncleaved DNA left, log2 of reads against the no-enzyme library (log2 ratio); higher = less cleavage (more negative = more Rep cleavage of the k-mer); sequences stand for … in CTCGTCCG…ACCGGAGA).
T1 sequence (Rep 1-124, printed without the tag): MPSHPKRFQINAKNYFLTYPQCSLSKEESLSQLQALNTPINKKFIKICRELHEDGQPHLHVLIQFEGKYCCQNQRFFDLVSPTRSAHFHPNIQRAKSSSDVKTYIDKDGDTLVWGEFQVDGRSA
Description: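 A pool of 90-nt single-stranded DNAs with seven random bases just before the constant AC of the nick site (name = the seven bases) was cut by 3 µM recombinant His6-SUMO-tagged Rep nickase domain (300 nM DNA, 50 mM HEPES pH 8.0, 50 mM NaCl, 1 mM MnCl2, 1 h, 37 °C, three replicates). Uncut DNA was amplified and sequenced.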

| Sequence | uncleaved DNA left (log2) |
| --- | --- |
| AGGATTG | 0.156 |
| CTGGATC | 0.0285 |
| AAACTTC | -0.0513 |
| GCCCGTC | 0.0343 |
| TAATTCC | -3.58 |
| TGTGGGT | -0.0467 |
| GCGAGAA | 0.0794 |
| TAGTCTG | 0.0461 |
| CTACGTC | -0.0563 |
| TATATGA | 0.0127 |
| TGGAGGC | 0.0149 |
| GCACGTA | -0.00106 |
| ATTCGAG | 1.84e-05 |
| ACCGCGA | 0.0496 |
| CCGATTT | -0.207 |
| GTGCGCG | -0.0894 |
| GGGACTT | 0.115 |
| CTGCTTG | 0.127 |
| GAGATGT | 0.0171 |
| GAATATT | -2.88 |

| Sequence | uncleaved DNA left (log2) |
| --- | --- |
| CAACCTG | -0.0389 |
| CAACCGG | -0.00975 |
| GAGTTCC | 0.0308 |
| AAAACGT | 0.0569 |
| AGAAACA | 0.242 |
| CAGTTAG | 0.127 |
| AATTGGC | -0.112 |
| ACATCCG | 0.0513 |
| ACAAAAC | 0.0533 |
| CTTGGGA | 0.0218 |
| GTAGGGG | 0.141 |
| GCTTAAT | -0.00645 |
| ACGTTGG | 0.0886 |
| CTGATTC | -0.19 |
| CAACTTA | 0.00874 |
| TACGGGT | 0.0124 |
| CCCAAGG | 0.077 |
| TGCACCC | -0.00517 |
| CACAGGC | 0.0369 |
| GATACCT | 0.18 |
